Test results published in PubChem BioAssay AID2451 (National Center for Advancing Translational Sciences (NCATS), 2010).
Among all 290,000 compounds or so, about 2,100 (0.72%) were called active. Inconclusive means that the source gave no clear call. Such entries were picked first, then a sample of the others. Calls follow the shape of the dose curve; as a rule, active = well fitted inhibition curve with a large enough effect; inconclusive = small, poorly fitted or top-dose-only effect, or effect the other way; inactive = flat fitted curve, though single readings scatter. A potency beside an inconclusive call is a rough fit, not a confirmed value.

Biological target: Fructose-bisphosphate aldolase (Giardia intestinalis (strain ATCC 50803 / WB clone C6)) (UniProt A8B2U2)
Assay: qHTS Assay for Inhibitors of Fructose-1,6-bisphosphate Aldolase from Giardia Lamblia; also: nearly all actives have a fitted effect of over 55% in size
Settings: purified Giardia FBPA; activity, negative = inhibition: at 59.6 µM (top of the series) unless noted
Outline: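 40 nM FBPA preincubated 10 min at RT with compound (up to 57.5 uM final), then substrate plus GAPDH/TPI/NAD/arsenate coupling and diaphorase/resazurin added. Fluorescence read after 20 min at RT, 525/598 nm.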
% is scaled to controls: 0 for no effect and ±100 for the full control effect; potency is read from the fitted curve at half-maximal effect; tags tell the direction and shape of the fitted curve.

Sequence of UniProt A8B2U2 (A8B2U2 whole entry, looked up): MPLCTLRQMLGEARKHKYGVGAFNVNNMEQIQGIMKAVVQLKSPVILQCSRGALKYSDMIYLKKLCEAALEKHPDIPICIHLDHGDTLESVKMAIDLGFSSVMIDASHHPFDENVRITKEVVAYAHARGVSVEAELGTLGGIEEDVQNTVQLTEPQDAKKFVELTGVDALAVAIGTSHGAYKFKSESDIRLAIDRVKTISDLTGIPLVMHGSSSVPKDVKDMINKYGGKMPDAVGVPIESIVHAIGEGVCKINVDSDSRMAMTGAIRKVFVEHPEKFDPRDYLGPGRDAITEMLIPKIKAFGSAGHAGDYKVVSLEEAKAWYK

SMILES | Potency | activity, negative = inhibition
CC(=O)C1=C(O)C(=O)N(CCCCCC(=O)O)C1c1ccc(N(C)C)cc1 (stereo not drawn) | inconclusive: 15.8 µM [inhibitor, single point] | –
COc1ccnc(CSC(N)=Nc2ccccc2OC)c1 | inconclusive: 17.7 µM [inhibitor, single point] | –
Cc1ccc(-n2ncc3c(SCC(N)=O)ncnc32)cc1C | – | inactive: 16.7%
COc1ccc(-c2csc(NC(=O)CSc3n[nH]c(N)n3)n2)cc1 | inconclusive: 17.7 µM [inhibitor, partial curve] | –
C/C=C/C=C/C(=O)[C@@H]1[C@@H]([C@]2(C)OC(=O)C(C)=C2O)[C@H]2/C(=C(O)/C=C/C=C/C)C(=O)[C@]1(C)C(=O)C2(C)O (stereo partly drawn) | – | inactive: -25.6%
Cc1c(C(=O)N2CCN(CCc3ccccn3)CC2)oc2ccc(Cl)cc12 | inconclusive: 25.1 µM [inhibitor, partial curve] | –
COc1ccc(NC(=O)C2Cc3ccccc3CN2C(=O)c2ccccc2)cn1 (stereo not drawn) | inconclusive: 19.9 µM [inhibitor, single point] | –
Cc1oc2c(c1C(=O)NCc1cccnc1)C(=O)c1ccccc1C2=O | inconclusive: 0.126 µM [inhibitor, full curve] | –
CCc1cc2c(Nc3ccc(O)cc3)nc(C)nc2s1 | inconclusive: 35.5 µM [inhibitor, single point] | –
O=[N+]([O-])c1ccc(CN2CCCCCC2)s1 | inconclusive: 15.8 µM [inhibitor, single point] | –
CC1CN(C(C)C)C(C)CC1OC(=O)c1ccccc1 (stereo not drawn) | inconclusive: 39.8 µM [inhibitor, single point] | –
COC(=O)Cn1cc(/C=C/c2cc[n+](C)cc2)c2ccccc21 | inconclusive: 28.2 µM [inhibitor, partial curve] | –
Cc1ccc(C)c(C(=O)CSc2n[nH]c(C)n2)c1 | inconclusive: 17.7 µM [inhibitor, partial curve] | –
O=P(NS(=O)(=O)c1ccc(Br)cc1)(Oc1ccccc1)Oc1ccccc1 | inconclusive: 17.7 µM [activator, partial curve] | –
CC(NCc1cccs1)C(=O)Nc1cc(Cl)cc(Cl)c1 (stereo not drawn) | inconclusive: 15.8 µM [inhibitor, partial curve] | –
Cc1cc(CC(C)C)n(-c2nc3ccccc3c(=O)n2OCC(=O)N(C)C)n1 | – | inactive: 5.99%
N#C/C(=C\c1ccc([N+](=O)[O-])o1)C(=O)Nc1ccc(F)cc1 | inconclusive: 12.6 µM [inhibitor, partial curve] | –
CCn1cnc2cc(NC(=O)c3ccc(C)cc3)ccc21 | inconclusive: 22.4 µM [inhibitor, partial curve] | –
